The list shows a part of the results. At the low end of the ranking, values are background and their order means little.
target: T1, GST-Rok (full length) (UniProt O34857); test: protein binding microarray; details: Rok is a gene silencer of Bacillus subtilis; high values mean tight binding; most listed sequences are background and not binding sites; double strand, one strand shown;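 further: rank score from −0.5 (least bound) to 0.5 (best bound)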
T1 sequence: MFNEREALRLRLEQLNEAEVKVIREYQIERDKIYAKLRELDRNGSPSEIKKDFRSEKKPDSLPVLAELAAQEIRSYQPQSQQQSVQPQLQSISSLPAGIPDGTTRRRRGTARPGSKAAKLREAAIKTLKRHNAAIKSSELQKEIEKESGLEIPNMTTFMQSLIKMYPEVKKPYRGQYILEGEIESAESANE

Sequence	binding signal
CATGCTGC	-0.00844 E-score
AAGAATCC	0.0482 E-score
GGGGTATA	-0.0577 E-score
GGCGTTAC	-0.208 E-score
GTTGTGCA	0.227 E-score
AGCGCATC	0.00598 E-score
ACACCTCC	-0.164 E-score
AGCCTCGG	-0.32 E-score
ACTTATTG	0.0643 E-score
TGGTAAAA	0.354 E-score
AAGCGAGG	-0.282 E-score
CATCCAAG	0.11 E-score
ATGAAACC	-0.201 E-score
GACATCCA	-0.1 E-score
ACCACAAT	0.058 E-score
CGAAAAAC	-0.193 E-score
AAGCTAAT	0.235 E-score
CATTCTGG	-0.171 E-score
ATCGGCGA	0.109 E-score
TAGGACAA	-0.0259 E-score
GAATCTTA	0.141 E-score
ATACGCTA	0.214 E-score
ACGACAGT	0.0319 E-score
AGTCCGGC	-0.234 E-score
AATGTCTC	0.00163 E-score

Sequence	binding signal
GGTACAGA	0.0996 E-score
AAGGATTC	-0.0144 E-score
AATAGAGT	-0.026 E-score
CTGGACTC	-0.256 E-score
ATCCACAC	0.00217 E-score
ATAGAACA	0.236 E-score
CATTCATA	0.212 E-score
AACCTCGG	-0.0369 E-score
TCTACAGA	0.21 E-score
CATTATGC	0.143 E-score
ATGAGACG	-0.208 E-score
CTCGCGGA	-0.123 E-score
AGCCTATG	-0.124 E-score
GTCAGGAC	-0.305 E-score
ACACCCAT	-0.11 E-score
CAAGTGCA	-0.115 E-score
AAAACAGG	0.172 E-score
ACCCCTAT	-0.221 E-score
ACATTCTC	0.0677 E-score
TAGCGGGA	-0.124 E-score
ACGACAAG	0.00569 E-score
CTCCGCAG	-0.305 E-score
AGGCTAGA	-0.0793 E-score
AGGCGACG	-0.0914 E-score
AGCGTCTC	-0.128 E-score

Sequence	binding signal
TGGGCACA	0.0658 E-score
CCCCAGTA	-0.194 E-score
CGTCTGCA	-0.0854 E-score
AGGACCGC	-0.388 E-score
CGTTCTAG	0.121 E-score
ATGTCAAA	0.108 E-score
GCGTGGCA	-0.281 E-score
ATGCCCGG	-0.304 E-score
ATAGGAAG	0.0173 E-score
CTGGGGCA	-0.328 E-score
AACCAGGA	-0.134 E-score
CGTGGTAG	0.295 E-score
GTGTATGA	0.155 E-score
TTGGGAAA	-0.011 E-score
CAATTACC	0.133 E-score
TATAAGGA	0.062 E-score
CCAGTTAC	0.173 E-score
AGGTGATA	0.315 E-score
AAGACTCA	-0.0739 E-score
GCCGACAA	-0.192 E-score
ACCAGAAC	0.0361 E-score
CGATCATA	0.207 E-score
ACTCTTCG	0.0618 E-score
GAGGAGGC	-0.352 E-score
CGGCTCTC	-0.283 E-score

Sequence	binding signal
ATCCCAAT	-0.155 E-score
ACACTGCT	0.13 E-score
ACTAGGCC	-0.213 E-score
ATCGAGGC	-0.281 E-score
CGTACATC	0.239 E-score
TACCGCAA	0.185 E-score
ACACACAC	0.127 E-score
GCTGGGCC	-0.216 E-score
GCGGGGCC	-0.412 E-score
GGGCAACC	-0.342 E-score
CTGACAAG	-0.117 E-score
AAAAGACT	-0.0617 E-score
CAGGCCCC	-0.398 E-score
ACAGCGCC	-0.324 E-score
AGTTGTGA	-0.0272 E-score
AGCATTGA	0.0332 E-score
ACGAGAAA	-0.0804 E-score
CAGCCACG	-0.111 E-score
GCTGCAAA	-0.0275 E-score
AAATGATG	0.146 E-score
ATAATTAC	0.385 E-score
CAGCATCA	0.0323 E-score
CAACTCCC	-0.125 E-score
CGCCTACG	-0.21 E-score
CTGTGTTC	-0.0402 E-score

Sequence	binding signal
AATCCTCT	-0.0111 E-score
ACTGCAGA	0.0691 E-score
ACCAAATC	0.131 E-score
AAATACAG	0.264 E-score
AGTGGCCA	-0.0827 E-score
CCAGTAAC	-0.103 E-score
CGGACTTC	-0.0622 E-score
ATAAGGAA	0.0169 E-score
CTCCACTA	0.0959 E-score
ATGTACAC	0.191 E-score
AGGCTTCA	-0.335 E-score
AGGGCCGC	-0.341 E-score
CTGAGAAA	-0.00517 E-score
GGAGCCTA	-0.287 E-score
AAAATCTT	-0.00511 E-score
GTTTTTTA	0.0779 E-score
CGGTAGTC	0.173 E-score
CTGGTTCA	-0.105 E-score
ATCACGAG	-0.0282 E-score
ACGATTCG	-0.0262 E-score
ATCAAGAA	-0.086 E-score
ACGGCAGA	-0.141 E-score
CTCGGTAC	0.171 E-score
CCAAAAGC	-0.17 E-score
TACACGAA	0.196 E-score

Sequence	binding signal
AAAGCAAC	0.0568 E-score
CCACAATA	0.276 E-score
GTGACAAA	-0.109 E-score
GAAGAACA	-0.0616 E-score
AGAAGCAA	0.19 E-score
AGAACCCC	-0.314 E-score
AGGCTTAT	-0.00888 E-score
CTCCTATC	0.000123 E-score
GAGAGAGA	-0.124 E-score
AATCGATA	0.281 E-score
ACTTTACC	0.196 E-score
AGTCGGAT	-0.187 E-score
CGTTGTTA	0.122 E-score
CGCTCGAG	-0.144 E-score
GCAGGACC	-0.352 E-score
ACCGACTA	-0.00372 E-score
GAAATCTC	0.209 E-score
CCCGTACA	0.00638 E-score
GAGGGAAA	-0.19 E-score
CGGCTGTA	-0.0178 E-score
ATGCCTTG	-0.0353 E-score
GCCAGCTA	0.0881 E-score
GAGCTCAA	-0.118 E-score
ACCACACT	0.0549 E-score
AGGATTCA	-0.117 E-score

Sequence	binding signal
GGTACGCA	-0.0737 E-score
GGGCCGGA	-0.296 E-score
AGCTCATA	0.0657 E-score
AAGACGAT	-0.216 E-score
GAAATGCA	-0.095 E-score
CCATTTGC	-0.039 E-score
AGATGGTC	0.0272 E-score
AGTCATCG	-0.11 E-score
CCGCACTC	-0.348 E-score
GCGCTGCA	-0.112 E-score
GGAATCTA	0.363 E-score
GAGTGTGC	-0.131 E-score
AGTTCAAC	0.145 E-score
GAAGGTGA	-0.267 E-score
ACGCCGTG	-0.165 E-score
GTTTACCA	0.0835 E-score
AGGATAAG	0.0375 E-score
AAATTTCA	0.146 E-score
GGCGTCAA	-0.239 E-score
AAGTGAGC	-0.093 E-score
AGCAGGTA	0.00164 E-score
GATTTCGC	0.0887 E-score
